# In the supplement of paper PMC3334620:
# In all, about 33,000 sequences were measured (“E-score (-0.5 to 0.5)”: median about -0.041, highest 2% from about 0.37 on). Some of the results follow.
# Target: T1, Ecm22 (UniProt Q05958)
# T1 sequence: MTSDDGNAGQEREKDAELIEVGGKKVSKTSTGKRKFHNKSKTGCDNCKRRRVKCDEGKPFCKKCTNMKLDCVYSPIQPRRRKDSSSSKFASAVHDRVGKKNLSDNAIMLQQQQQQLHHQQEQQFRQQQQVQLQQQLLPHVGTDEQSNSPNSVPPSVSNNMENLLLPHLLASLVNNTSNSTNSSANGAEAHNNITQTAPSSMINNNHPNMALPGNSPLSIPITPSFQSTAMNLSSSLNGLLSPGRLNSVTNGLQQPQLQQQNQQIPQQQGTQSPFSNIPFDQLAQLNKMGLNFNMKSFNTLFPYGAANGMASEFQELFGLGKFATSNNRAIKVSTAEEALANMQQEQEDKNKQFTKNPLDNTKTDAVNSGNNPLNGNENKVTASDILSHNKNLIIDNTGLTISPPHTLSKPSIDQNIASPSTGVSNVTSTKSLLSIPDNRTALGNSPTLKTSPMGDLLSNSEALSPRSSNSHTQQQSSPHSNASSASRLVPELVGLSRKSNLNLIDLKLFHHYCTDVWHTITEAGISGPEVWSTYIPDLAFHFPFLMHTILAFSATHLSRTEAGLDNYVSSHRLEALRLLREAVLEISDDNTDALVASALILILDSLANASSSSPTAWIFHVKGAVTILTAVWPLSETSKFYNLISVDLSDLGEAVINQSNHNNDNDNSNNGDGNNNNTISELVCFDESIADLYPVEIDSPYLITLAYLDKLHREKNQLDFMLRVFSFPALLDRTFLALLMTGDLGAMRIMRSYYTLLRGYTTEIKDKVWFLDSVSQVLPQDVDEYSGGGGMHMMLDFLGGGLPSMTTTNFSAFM
# Assay: PBM E-score (8-mer binding enrichment) (E-score (-0.5 to 0.5)); higher = stronger / more preferred TF binding; most listed sequences are background and not binding sites
# Conditions: protein concentration: 200 nM; construct: GST-full length
# How it was run: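 Bound GST-tagged yeast transcription factors, applied at about 100-200 nM to double-stranded universal all-10-mer Agilent arrays, were detected with fluorescent anti-GST. Scans were normalised with masliner. A modified Wilcoxon-Mann-Whitney statistic, the E-score, was assigned to each ungapped eight-base word pooled with its reverse complement by the Universal PBM Analysis Suite.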
row,Sequence,PBM E-score
1,GTGGCTCA,-0.251
2,ATCTCCAG,-0.156
3,AAAATCTG,-0.0871
4,TAGTAGCA,0.117
5,CGCTTCCC,0.169
6,CGTATGAG,0.354
7,ATCTGTGA,-0.0254
8,AAAGCACC,-0.135
9,GATGGGCA,-0.0653
10,CAAGTCAA,-0.126
11,TAATGCTA,-0.208
12,ACAGTCCA,-0.196
13,ACAAGAGG,-0.185
14,GGTTCCTA,-0.128
15,CACGTCGA,-0.0843
16,AGGTAGGC,-0.22
17,AGCACTAA,0.0469
18,CATTGAGG,-0.15
19,CCTTGGTA,-0.0661
20,AGTTCTCC,-0.164
21,GCTTGTAA,-0.00771
22,CTAAATCC,0.164
23,ATCCATGG,-0.168
24,CGGGATTC,0.211
25,CTTTGGTC,-0.0249

row,Sequence,PBM E-score
1,AACGCTAA,0.0112
2,ATGTTTCA,-0.0169
3,GAAGGGAC,-0.144
4,AAGACCAT,-0.162
5,CCGGGACC,-0.0626
6,CTCACAAG,-0.25
7,CGTATATA,0.444
8,GAGATCAA,0.0365
9,AAGCTGAT,-0.154
10,CCCCGAAG,-0.171
11,CCTATAGA,-0.0855
12,CACAGCAC,-0.184
13,ACAAGTAC,0.197
14,GGCTACAC,-0.0237
15,AGGACAAG,0.00262
16,AATTTTCG,0.07
17,GGATCAAA,-0.0427
18,GGATCGCC,0.0498
19,AAAGACGA,0.0718
20,AGGGAGAG,-0.207
21,GACAGGTA,-0.0754
22,CATCTCCG,0.0419
23,AAGCCACA,-0.109
24,CCCACTCC,-0.145
25,ATTCTTCC,-0.227

row,Sequence,PBM E-score
1,GCACACCA,-0.094
2,CCGCCATA,-0.0249
3,ATGTCTGC,-0.154
4,AACGACCC,0.386
5,GCACTATA,0.196
6,GTCCATTA,0.0272
7,CCCGGAGC,0.0701
8,TCGCGTCA,0.0567
9,CACAGACA,-0.147
10,CCGATAAA,-0.0442
11,GGGTGATA,0.032
12,CTCCTAAG,-0.35
13,AGGGGCCG,-0.255
14,ATGCATTG,-0.0737
15,CGCGATAA,0.0651
16,CAGATGGA,0.0554
17,ACTACACA,0.154
18,TGACAGAA,0.0256
19,ATGAAAAC,0.155
20,AACAGGTC,0.0282
21,GATATACA,0.0768
22,ACTCCGTG,-0.233
23,ACCTTGTC,-0.171
24,AGAGTTCC,-0.101
25,AGAGTCCG,-0.0869

row,Sequence,PBM E-score
1,AAACTGGG,-0.243
2,ATTACGCA,0.0632
3,CTATGCCC,0.00213
4,ATTCCATG,-0.0307
5,AAACCTCT,-0.177
6,CGAGGTCC,0.134
7,GACCATCC,-0.0932
8,TAGTGTCA,-0.0182
9,AGAATCCT,-0.317
10,AGCTTCAA,-0.153
11,TCCCGGAA,-0.081
12,ATTCACCC,-0.123
13,ATTTTAAC,0.117
14,AAGACAGC,-0.272
15,CGAGAGAA,0.197
16,CGAGGCAC,0.148
17,CCGTAATA,0.228
18,CTCGTTTC,0.453
19,GGAATTAC,0.195
20,AATAGGAT,-0.00412
21,CGCTCTCA,0.0445
22,TACGTTGA,0.208
23,AGAACTCC,-0.0233
24,GAGGTTGC,-0.0862
25,GTGGGGTA,0.0596

row,Sequence,PBM E-score
1,ACTCGTTG,0.274
2,AACATGAA,-0.016
3,TGTTCGAA,0.168
4,GAAATCGA,-0.0317
5,CCCTTCGA,-0.367
6,ATTACATG,-0.0576
7,ATGACGGG,-0.125
8,CATGGAAG,-0.0835
9,AAGCAATC,-0.0922
10,AAAGTAGC,-0.0576
11,ACTCTGTA,-0.0847
12,AAGTTTTA,0.0756
13,GTTCGAAA,0.116
14,ATAGGTTC,0.00586
15,AACCCCCT,-0.265
16,CGTTATCA,0.0306
17,TACAGTAA,0.0166
18,CTTATGAA,0.00198
19,CCCGGCGA,0.00449
20,CCCCTAAC,-0.155
21,CATCACAG,-0.211
22,ACGCGAGA,0.281
23,GCAAACGA,0.433
24,CTATCTTC,0.0561
25,GAGCAAAC,0.0713

row,Sequence,PBM E-score
1,AGGACTAT,-0.265
2,GAAGCGGA,0.0159
3,CCAACGCG,0.113
4,AACGCCAT,-0.197
5,ATGACCAT,-0.00468
6,CACGAAGG,0.0498
7,AACGACGT,0.435
8,CTGCATGA,-0.259
9,GGAACCGA,0.29
10,CATTGACA,-0.299
11,AGTATATG,-0.0215
12,CCCTCGTA,0.477
13,AGGGCGTG,-0.0786
14,CGCCCGGC,-0.291
15,AAGATTCC,-0.0838
16,GCTGAACC,0.00818
17,ACACCCGA,0.132
18,ATGAAATC,-0.0184
19,GGAGTACC,-0.167
20,CCAATGAA,-0.113
21,CCCCCTAC,-0.387
22,CGTGTATC,0.109
23,ACCACTGA,0.0134
24,ATATAGTC,0.132
25,CCCATAGG,-0.18

row,Sequence,PBM E-score
1,CACATTCC,-0.0999
2,GTATCAAA,0.0901
3,CCTTGGCA,-0.345
4,ACTTAAAA,-0.11
5,ATGCGCGC,0.113
6,GTTATCGA,0.0984
7,ACGGTTGC,0.0608
8,AAGGGGCC,-0.211
9,CGGCTATC,0.059
10,CTGGCCAA,-0.193
11,AGTTATTG,-0.0847
12,CACCTCGC,0.144
13,CAAGCGTA,0.129
14,AAGCCCTA,-0.0456
15,CCCTGCAA,-0.112
16,CTTAACAC,-0.12
17,ACGGGAGT,0.206
18,AGGCAGAG,-0.165
19,AACTATTC,-0.00524
20,ATCTTTTC,-0.0858
21,TGTGGAAA,-0.026
22,GGTGGTCA,-0.241
